Results as given in article PMC4336329 (PLoS ONE, 2015).
The campaign covered roughly 310,000 compounds. About 2,200 (0.71%) showed an effect of 50% or more. Effects have a minus sign here. This is one part of the list.

biological target: human ether-à-go-go-related gene (hERG) potassium channel (human, UniProt Q12809); assay: primary screen, population patch clamp on CHO cells stably expressing hERG
Sequence (Q12809 whole entry, looked up): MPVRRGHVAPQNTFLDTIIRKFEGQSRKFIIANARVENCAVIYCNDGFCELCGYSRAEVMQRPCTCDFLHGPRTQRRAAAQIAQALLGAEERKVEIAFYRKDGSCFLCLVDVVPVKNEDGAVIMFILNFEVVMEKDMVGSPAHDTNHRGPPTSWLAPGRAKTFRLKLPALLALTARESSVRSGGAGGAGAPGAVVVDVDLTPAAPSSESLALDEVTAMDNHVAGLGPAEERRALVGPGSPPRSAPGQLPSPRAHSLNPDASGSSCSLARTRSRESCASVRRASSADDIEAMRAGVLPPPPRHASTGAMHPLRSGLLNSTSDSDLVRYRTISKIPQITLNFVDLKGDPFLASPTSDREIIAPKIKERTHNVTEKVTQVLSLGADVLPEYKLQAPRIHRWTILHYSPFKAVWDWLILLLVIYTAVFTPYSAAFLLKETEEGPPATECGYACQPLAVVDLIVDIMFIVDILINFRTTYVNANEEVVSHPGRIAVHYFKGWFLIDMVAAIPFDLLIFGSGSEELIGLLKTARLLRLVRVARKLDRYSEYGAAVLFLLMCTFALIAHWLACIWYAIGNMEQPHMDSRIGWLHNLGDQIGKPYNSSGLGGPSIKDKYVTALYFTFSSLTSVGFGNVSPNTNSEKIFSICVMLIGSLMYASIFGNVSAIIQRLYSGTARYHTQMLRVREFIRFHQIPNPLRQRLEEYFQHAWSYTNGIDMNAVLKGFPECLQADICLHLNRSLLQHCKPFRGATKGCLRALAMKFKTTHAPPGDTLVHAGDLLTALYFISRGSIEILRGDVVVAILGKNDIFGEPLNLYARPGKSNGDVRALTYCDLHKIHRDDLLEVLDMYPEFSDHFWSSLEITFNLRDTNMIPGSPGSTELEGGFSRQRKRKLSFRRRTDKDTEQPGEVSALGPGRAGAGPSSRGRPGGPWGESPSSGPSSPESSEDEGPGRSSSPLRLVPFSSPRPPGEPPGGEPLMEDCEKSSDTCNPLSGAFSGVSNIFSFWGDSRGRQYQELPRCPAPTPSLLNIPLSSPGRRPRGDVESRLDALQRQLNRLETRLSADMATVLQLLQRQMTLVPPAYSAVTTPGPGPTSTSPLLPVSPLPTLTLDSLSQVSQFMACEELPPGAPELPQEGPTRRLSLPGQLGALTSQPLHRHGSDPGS

Structure (SMILES) | hERG current change (%, negative = inhibition) at 1uM
COc1ccccc1N1CCN(C(=O)/C=C/c2c(Cl)nc3ccccn23)CC1 | 5.66%
CCOn1c(=O)c[n+]([O-])c2ccccc21 | 12.8%
CC(=O)Nc1ccc(S(=O)(=O)NCCSCc2ccco2)cc1 | 1.25%
COc1ccccc1NC(=O)COc1ccccc1 | 15.6%
CN(C)C1=NCCN1CCCCc1ccccc1 | 0.122%
CCn1c(CSc2nc3ccccc3s2)n[nH]c1=S | 14.4%
CCOC(=O)Cc1cc(=O)[nH]c(/N=C(\N)Nc2ccc(OC)cc2)n1 | 10.8%
O=C(N/N=C/c1cn[nH]c1-c1ccc(F)cc1)c1ccncc1 | 11.6%
N#CCCCSc1nnc(-c2ccc(Cl)cc2)n1-c1ccccc1 | 4.89%
CC1(C)Cc2c(cnn2-c2cccc(F)c2)C(NC(=O)CSc2ccncc2)C1 (stereo not shown) | -11.4%
CCOC(=O)C1(CCSC)NC(c2ccco2)C2C(=O)N(C)C(=O)C21 (stereo not shown) | 15.1%
COc1ccc2cc(-c3[nH]ncc3CN3C[C@@H]4CCC[C@H]3C4)ccc2c1 | -10.1%
CCN(CC(=O)Nc1ccc(NC(C)=O)cc1)C(=O)c1ccccc1SCC(=O)N1CCCC1 | 13%
COC(=O)CN1C(=O)N/C(=C/c2cc(OC)c(OC)cc2C)C1=O | 9.27%
Cc1ccc(C(=O)NCc2ccc3c(c2)OCO3)cc1C | 15.4%
CCC(C)c1c(O)nc(SCC(=O)N2CCOCC2)[nH]c1=O (stereo not shown) | 3.49%
Cc1ccc2oc(-c3cccc(N)c3)nc2c1 | 16.4%
CC(=O)[C@@H]1[C@@H](C(=O)c2ccc(C)cc2)[C@]2(C(=O)Nc3ccccc32)[C@H]2C=Cc3cc(F)ccc3N12 | 13.9%
Cc1ccc(C(=O)Nc2sc3c(c2C#N)CCCCC3)cc1C | 0.327%
Cc1nonc1NC(=O)CSc1nc2ccc(Cl)cc2[nH]1 | 9.93%
COc1cccc(NC(=O)C(OC(=O)c2cnc(C)cn2)c2ccccc2)c1 (stereo not shown) | 18.5%
O=C(Nc1ccc(S(=O)(=O)Nc2cnc3ccccc3n2)cc1)c1ccc(F)cc1 | 7.17%
Cc1ccc(CSc2ncnc3onc(C)c23)cc1 | 12.4%
O=C(O)[C@@H](O)c1ccccc1 | 10.6%
Cc1ccc(C)c(-n2c(Cc3cc(=O)[nH]c(=O)[nH]3)nnc2SCC(=O)NCC2CCCO2)c1 (stereo not shown) | 8.54%
